Screen size: about 360,000 compounds; about 6,000 (1.7%) were called active. Inconclusive means that the source gave no clear call. Such entries were picked first, then a sample of the others. The call rests on the fitted dose curve; in most records, active means well fitted cell-killing curve with a large enough effect; inconclusive means small, poorly fitted or top-dose-only effect, or effect the other way; inactive means flat fitted curve, though single readings scatter. No potency is given beside an inconclusive call; the fits are too rough.
Experiment: qHTS for induction of synthetic lethality in tumor cells producing 2HG: qHTS for the HT-1080-NT fibrosarcoma cell line;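 further: NT is the 2HG producing partner of a matched IDH1 knockdown line; nearly all actives have a fitted effect of over 55% in size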;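 on activity, negative = less viability: 0% = DMSO-treated cells and -100% = media-only wells without cells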
Details: HT-1080-NT fibrosarcoma viability, CellTiter-Glo ATP luminescence, 48 h; activity, negative = less viability: at 46.1 µM (top of the series) unless noted
In short: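 Read-out is CellTiter-Glo luminescence after 10 minutes at room temperature, following 48 hours' compound treatment of HT-1080-NT cells (750 cells/well, RPMI, 5% FBS, 37 degrees C).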
For Cc1ccc(NC(=O)C2(C)CCN2C(=O)Cc2ccc(C(C)(C)C)cc2)cc1C (stereo unspecified), the Potency was active: 18.4 µM.
With CCCCN(CC)S(=O)(=O)c1ccc(C(=O)N(CCCN(C)C)c2nc3cc(C)cc(C)c3s2)cc1 the Potency was active: 20.6 µM.
In the case of CC(=O)Nc1ccc(NC(=O)C(C)OC(=O)C23CC4CC(CC(Cl)(C4)C2)C3)cc1 (stereo unspecified), the “activity, negative = less viability” value was inactive: -12.6%.
With CCOC(=O)N/N=C/c1cn(CCCOc2ccc(C)cc2)c2ccccc12 the “activity, negative = less viability” value was inactive: 0.755%.
For COc1cccc(-c2nc(CS(=O)CC(=O)NC3CCCCC3)c(C)o2)c1 (stereo unspecified), the “activity, negative = less viability” value was inactive: 15.8%.
In the case of CCCOc1ccc2c(c1)C(=NN=C(N)N)c1cc(OCCC)ccc1-2, the Potency was inconclusive [cytotoxic, single point].
In the case of CCCN(CC(=O)Nc1ccccc1OC)C(=O)C1=COCCO1, the “activity, negative = less viability” value was inactive: -0.401%.
For Cc1cc2nc(-c3cccc(Br)c3)c(Cc3ccccc3)n2c(C)c1Br, the Potency was inconclusive [cytotoxic, single point].
With O=C1NC(=Nc2ccc(O)cc2)S/C1=C/c1ccco1 the Potency was inconclusive [cytotoxic, full curve].
For C[C@H](CO)N1C[C@H](C)[C@@H](CN(C)Cc2ccc(C(=O)O)cc2)Oc2ccc(NS(=O)(=O)c3cn(C)cn3)cc2C1=O, the Potency was inconclusive [rising, single point].
In the case of Cc1nc2c(OCc3ccc(C(F)(F)F)cc3)cccn2c1N(C)CC1CC1, the Potency was active: 6.51 µM.
For Cc1cc2oc(=O)cc(CN3CCN(S(=O)(=O)c4ccc5c(c4)OCCO5)CC3)c2cc1C, the “activity, negative = less viability” value was inactive: -7.95%.
In the case of Cc1cc(NC(=O)CCCSc2nc(-c3ccco3)cc(C(F)(F)F)n2)n(-c2ccccc2)n1, the “activity, negative = less viability” value was inactive: -10.7%.
With O=C(Cc1ccccc1)NC(=S)Nc1cccc(C(F)(F)F)c1 the Potency was inconclusive [cytotoxic, single point].
With NS(=O)(=O)OCc1ccc(C(F)(F)F)cc1 the Potency was inconclusive [rising, single point].
In the case of CC(=O)OCC(=O)[C@@]1(O)CC[C@H]2[C@@H]3C[C@H](C)C4=CC(=O)C=C[C@]4(C)[C@H]3[C@@H](O)C[C@@]21C, the Potency was inconclusive [rising, partial curve, poor fit].
In the case of O=C(COc1ccc(Br)cc1CNC1CCCCC1)NCCc1ccccc1, the Potency was active: 23.1 µM.
With Cn1nc(-c2ccc(C(=O)N3CCN(Cc4ccccc4)CC3)cc2)c2ccccc2c1=O the “activity, negative = less viability” value was inactive: -8.94%.
For CCOCCCNC(=O)c1cc2c(=O)n3cccc(C)c3nc2n1C, the activity, negative = less viability was inconclusive: -32.3% [cytotoxic].
In the case of COc1cc(C(=O)c2cc3c(cc2C)OCO3)cc(OC)c1OC, the Potency was inconclusive [cytotoxic, full curve].
With CC(=O)N1CCN(Cc2nc3cc(NC(=O)c4ccc(Cl)cc4)ccc3n2C)CC1 the Potency was inconclusive [cytotoxic, partial curve].
For CCOC(=O)CCc1nc2ccccc2[nH]c1=O, the “activity, negative = less viability” value was inactive: 12%.
For Cc1ccc(-c2ccc(CN3C(CC(C)C)C(=O)N(Cc4cn(CCC5OCCCO5)nn4)CCS3(=O)=O)cc2)cc1 (stereo unspecified), the Potency was inconclusive [cytotoxic, single point].
In the case of Cc1ccc(CN(C)C(=O)c2cccc(S(=O)(=O)N3CCc4ccccc4C3)c2)o1, the “activity, negative = less viability” value was inactive: -1.32%.
In the case of CCN1CCN(c2cc(C)c3cc(NC(=S)NCCCN4CCc5ccccc5C4)ccc3n2)CC1, the Potency was active: 20.6 µM.
With OC(CN1CCNCC1)Cn1c2ccccc2c2ccccc21 (stereo unspecified) the Potency was inconclusive [cytotoxic, single point].
With COCCC(=O)N1CCC(n2nccc2NC(=O)c2ccccc2C)CC1 the Potency was inconclusive [rising, single point].
In the case of CC1CCc2[nH]c3ccc(C(=O)NCCCOC(C)C)cc3c2C1 (stereo unspecified), the “activity, negative = less viability” value was inactive: 3.45%.
With O=C(c1ccc(Cl)c(Cl)c1)N1CCC(=O)N([C@H](COCc2ccccc2)Cc2ccccc2)CC1 the Potency was inconclusive [cytotoxic, single point].
With N#C/C(=C\c1ccc(O)c([N+](=O)[O-])c1)c1nc2ccccc2s1 the Potency was inconclusive [cytotoxic, partial curve].
With COc1ccc(-c2c(-c3ccccc3)c(C(=O)C(=O)NCCCN(C)C)n3ccc4cc(OC)c(OC)cc4c23)cc1OC the Potency was inconclusive [cytotoxic, single point].
With CCC1(C)Nc2ccccc2C(=O)N1O (stereo unspecified) the Potency was inconclusive [cytotoxic, single point].
In the case of Cc1c(CN2CCC(CO)(CCOc3ccccc3)CC2)[nH]c2ccc(Cl)cc12, the Potency was active: 25.9 µM.
With c1ccc(N2CCN(c3nc(-c4ccccn4)nc4ccccc34)CC2)cc1 the “activity, negative = less viability” value was inactive: -13.9%.
In the case of CCCCn1c(=N)n(CCOc2ccc(C)cc2)c2ccccc21, the Potency was inconclusive [cytotoxic, single point].
In the case of Cc1c(C(=O)N/N=C/c2ccc(N(C)C)cc2)[nH]c2ccc(Cl)cc12, the Potency was active: 5.8 µM.
In the case of O=c1cc(N2CCCCC2)c(-c2ccccc2)nn1Cc1c(Cl)cccc1Cl, the Potency was active: 18.4 µM.
With CCC(CC)C(=O)N(C)c1c(C)nc2c(OCCOc3ccc(F)cc3)cccn12 the “activity, negative = less viability” value was inactive: -28%.
For CC1CCCCN1c1ncnc2ccccc12 (stereo unspecified), the Potency was active: 17.8 µM.
For FC(F)(F)c1cc(-c2ccccc2)nc(N2CCOCC2)n1, the “activity, negative = less viability” value was inactive: 2.98%.
For N#CC(c1cccc(Cl)c1)c1ccc2c(C(F)(F)F)cc(C(F)(F)F)nc2n1 (stereo unspecified), the Potency was active: 9.2 µM.
For COCCCN=C1NN=C(c2cc(C)n(Cc3ccco3)c2C)CS1, the Potency was active: 1.64 µM.
In the case of CC(C)(C)NC(=O)C(c1ccncc1)N(Cc1cccs1)C(=O)Cn1nnc(-c2ccc(F)cc2)n1 (stereo unspecified), the activity, negative = less viability was inconclusive: -30.2% [cytotoxic].
In the case of COc1cccc(-c2cc(NC=O)c3ncc(-c4ccc(C(C)=O)cc4)n3c2)c1, the Potency was active: 18.4 µM.
In the case of C#CCOCCOCCOCCNc1nc(N2CCN(C(=O)CCCCCCCCCCNC(=O)[C@H](CCCCN)n3cc(C)nn3)CC2)nc(N2CCN(C(=O)CCCCCCCCCCNC(=O)[C@@H]([C@H](C)O)n3cc(C)nn3)CC2)n1, the Potency was active: 10.3 µM.
In the case of NC(c1ccccc1)c1csc(NC(=O)Nc2ccc(OC(F)(F)F)cc2)n1 (stereo unspecified), the Potency was inconclusive [cytotoxic, single point].

— PubChem BioAssay AID686970 (National Center for Advancing Translational Sciences (NCATS), 2013)
Potency means the concentration at half of the fitted maximal effect; tags describe the fitted curve by direction and shape.
